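Following 48 hours of exposure in 96-well plates, responses at five concentrations were used to interpolate endpoints linearly. Abbreviation: GI50, concentration required for 50% inhibition of growth. TGI: concentration producing complete growth inhibition.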
tested on: NCI-H322M lung; assay: NCI anticancer screen, dose series, 48 h

In order of rising GI50:
1. C[C@@H](Nc1c(C#N)cnc2ccc(-c3cnc(Cl)c(NS(C)(=O)=O)c3)cc12)c1ccccc1  0.725 µM
2. O=c1oc2ccc(-c3ccc(F)cc3F)cc2c(=O)n1-c1cccc(C(F)(F)F)c1  1.34 µM
3. CCc1cc(OC(=O)N2CCC(N3CCCCC3)CC2)ccc1Nc1cc(-c2ccc(-n3cccn3)cc2)[nH]n1  2.25 µM
4. O=[N+]([O-])c1ccc(-c2nnc(SCc3ccc(O)c4ncccc34)n2-c2ccccc2)cc1  2.53 µM
5. CN(C)CCCNc1c2ccc(Cl)cc2nc2c1oc1ccc(Cl)cc12  3.14 µM

First: O=[N+]([O-])c1ccc(-c2nnc(SCc3ccc(O)c4ncccc34)n2-c2ccccc2)cc1
Second: C[C@@H](Nc1c(C#N)cnc2ccc(-c3cnc(Cl)c(NS(C)(=O)=O)c3)cc12)c1ccccc1
The TGI of the first is higher: greater than 100 µM for the first, 8.74 µM for the second.

Compared with `CN(C)CCCNc1c2ccc(Cl)cc2nc2c1oc1ccc(Cl)cc12`, `O=c1oc2ccc(-c3ccc(F)cc3F)cc2c(=O)n1-c1cccc(C(F)(F)F)c1` is 2.5-fold lower in TGI: 11.7 µM for the first, 4.66 µM for the second.

Work on `CCc1cc(OC(=O)N2CCC(N3CCCCC3)CC2)ccc1Nc1cc(-c2ccc(-n3cccn3)cc2)[nH]n1` yielded a TGI of 5.8 µM.

Reference: PubChem BioAssay (NCI)
